# In all, about 110,000 compounds were measured (“z-score”: median about -0.1, highest 2% from about 2 on). The list shows a part of the results. Active and inactive are the calls of the source.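 How the source made its calls: active means z-score in the third read window above 3 or below -3; inactive means the rest.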 Residues, ends and D or L forms follow the SMILES beside them. *: point of attachment. Cbz = O=C(OCc1ccccc1)*
# Target: Metabotropic glutamate receptor 8 (Rattus norvegicus) (UniProt P70579)
# UniProt P70579, sequence (P70579 whole entry, looked up): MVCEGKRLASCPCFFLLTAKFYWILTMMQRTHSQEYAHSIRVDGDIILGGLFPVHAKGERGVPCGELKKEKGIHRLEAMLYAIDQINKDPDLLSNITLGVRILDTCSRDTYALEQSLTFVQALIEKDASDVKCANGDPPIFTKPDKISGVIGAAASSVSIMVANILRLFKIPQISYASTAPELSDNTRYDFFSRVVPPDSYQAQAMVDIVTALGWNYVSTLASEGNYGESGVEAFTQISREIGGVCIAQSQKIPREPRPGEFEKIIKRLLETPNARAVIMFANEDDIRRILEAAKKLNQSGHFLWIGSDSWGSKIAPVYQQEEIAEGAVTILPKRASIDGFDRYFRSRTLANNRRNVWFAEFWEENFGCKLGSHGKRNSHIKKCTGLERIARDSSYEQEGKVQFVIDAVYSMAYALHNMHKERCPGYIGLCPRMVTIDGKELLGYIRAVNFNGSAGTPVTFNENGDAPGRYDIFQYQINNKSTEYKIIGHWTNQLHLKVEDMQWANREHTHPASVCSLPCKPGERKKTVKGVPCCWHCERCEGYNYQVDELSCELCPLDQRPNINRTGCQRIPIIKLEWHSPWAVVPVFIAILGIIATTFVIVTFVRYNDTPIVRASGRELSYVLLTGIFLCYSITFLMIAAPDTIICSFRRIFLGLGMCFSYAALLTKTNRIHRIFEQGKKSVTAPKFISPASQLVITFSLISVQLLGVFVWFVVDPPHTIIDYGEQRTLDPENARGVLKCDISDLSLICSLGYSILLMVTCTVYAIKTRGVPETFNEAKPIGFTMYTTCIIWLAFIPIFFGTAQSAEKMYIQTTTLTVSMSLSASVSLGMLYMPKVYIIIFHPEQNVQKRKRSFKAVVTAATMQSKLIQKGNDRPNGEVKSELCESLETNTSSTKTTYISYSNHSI
# Test: rat mGluR8 modulators via GIRK flux, primary screen, cell-based, thallium flux, HTS (AID 488969)
# Conditions: HEK293 rat mGluR8, GIRK (G protein-gated inwardly rectifying potassium channel) thallium flux, FluoZin2; at 10 µM; stronger effect = higher value; submaximal glutamate (EC20) added with thallium
row,SMILES,z-score
1,Cn1nnnc1SCCNCc1ccncc1,-0.142
2,CCOC(=O)N1CCN(C(=O)CSCC(=O)Nc2nc(-c3ccc4c(c3)OCO4)cs2)CC1,-0.296
3,CCOc1ccccc1NC(=O)CN(c1ccc(C)cc1)S(=O)(=O)c1c(C)noc1C,0.061
4,Fc1ccc(NCc2ccccc2F)cc1Cl,0.593
5,COc1cccc(-c2cc(C(=O)N3CCCCC3C)no2)c1 (stereo not given),0.896
6,CN(C)S(=O)(=O)n1cnc(-c2ccccc2)c1-c1ccccc1,-0.218
7,Cc1c(CCO)c(=O)[nH]n1C(=O)c1ccc(F)cc1,-0.112
8,CCOc1ccc(C2=Nn3c(nnc3-c3ccc(OC)cc3)SC2)cc1,-0.0217
9,Cc1nc2cc(C(=O)OCC(=O)Nc3ccc(C#N)cc3)ccc2n1-c1ccccc1,-0.0383
10,Cc1c(O)ccc(C(=O)CN2C(=O)c3ccccc3C2=O)c1O,0.0985
11,COc1cccc(C(=O)OCCN2CCCCC2)c1,-0.0542
12,COC(=O)c1sccc1NC(=S)N1CCCCC1,0.893
13,Cc1onc(-c2ccccc2)c1C(=O)N/N=C/c1cccc(O)c1,-0.0503
14,O=C(NCCc1csc(-c2ccccc2)n1)c1cccs1,-0.44
15,CON(C)S(=O)(=O)c1ccc2c(c1)NC(=O)C1CCCN21 (stereo not given),-0.981
16,CC(C)OCCCNS(=O)(=O)c1ccc2ccccc2c1,-0.521
17,O=C(CCSc1nc2ccccc2s1)N/N=C/c1c(O)ccc2ccccc12,-0.021
18,Cc1ccc(NC(=O)COC(=O)c2ccccc2Nc2ccccc2)cc1,-0.179
19,CCOC(=O)c1[nH]c2ccc(Br)cc2c1NC(=O)CNC,0.478
20,CCCCn1c(O)c(C=NCCCN(C)C)c(=O)[nH]c1=O,0.0547
21,Cc1ccc(C(=O)c2ccc([N+](=O)[O-])cc2)cc1,0.0886
22,O=C(C1CCCCN1S(=O)(=O)c1ccccc1)N1CCN(C(c2ccccc2)c2ccccc2)CC1 (stereo not given),0.368
23,CN(C)Cc1cn(CCC(=O)O)c2ccccc12,-0.0882
24,Fc1ccc(C2CC(c3ccco3)n3ncnc3N2)cc1 (stereo not given),0.253

row,SMILES,z-score
1,COCC(C)n1c(C)cc(C(=O)Cn2c(=O)oc3ccccc32)c1C (stereo not given),-0.384
2,COc1ccc(NC(=O)c2c(NC(=O)CNCc3ccco3)sc3c2CCC3)c(OC)c1,-0.075
3,COc1ccc(C2C(C(C)=O)=C(O)C(=O)N2CCc2ccccc2)c(OC)c1 (stereo not given),-0.955
4,CCN(CC)S(=O)(=O)c1cccc(-c2nnc(SCc3nnc(-c4ccccc4)o3)n2C)c1,-0.425
5,CC(=O)c1c(C)[nH]c(C(=O)N2CCN(c3ncccn3)CC2)c1C,-0.0273
6,COCCOC(=O)C1=C(C)N=C2SCCC(=O)N2C1c1ccc(C(=O)OC)cc1 (stereo not given),-0.0728
7,COC(=O)C(NNc1ccc(F)cc1)(NC(=O)c1ccccc1)C(F)(F)F (stereo not given),0.581
8,CCCOc1ccc(-c2nnc(-c3cccs3)o2)cc1,-0.02
9,CSc1cc(-c2ccccc2)n(Cc2c(Cl)cccc2Cl)c(=O)c1C#N,0.169
10,Cc1cc(C)c(NC(=O)CSc2nccn2C)c(C)c1,-0.238
11,CCOC(=O)/C(C#N)=C\C1=C(N2CCCC2)CC(C)(C)OC1,0.457
12,CCN(Cc1ccccc1)c1ccc(/C=N/N2CCOCC2)cc1,-0.575
13,COC(=O)CCC(NC(=O)OCc1ccccc1)C(=O)NC(CC(C)C)C(=O)OC (stereo not given) (Cbz-Glu(OMe)-Leu-OMe; configuration not given here),-0.486
14,CCOc1ccc(NC(=O)CCN2CCN(S(=O)(=O)c3ccc(OC)cc3)CC2)cc1,-0.593
15,COC(=O)c1c(CSc2cccc(C)c2)noc1C(=O)NCc1ccco1,-0.487
16,CC(C)CCn1c(N2CCC(C(N)=O)CC2)nc2c1c(=O)[nH]c(=O)n2C,0.118
17,CCCCOC(=O)C1C2C=CC3(CN(CCc4ccccc4)C(=O)C13)O2 (stereo not given),-0.421
18,O=C(NCCCn1ccnc1)c1noc2c1CCc1ccccc1-2,-1.12
19,C=CCN(CC=C)S(=O)(=O)c1ccc(F)cc1,-0.198
20,O=S(=O)(c1ccc(OCC(O)CN2CCCCC2)cc1)N1CCOCC1 (stereo not given),0.352
21,CC(C)Cc1cc(C(=O)O)c2ccccc2n1,-0.114
22,Cc1cc(N2CCN(Cc3ccc4c(c3)OCO4)CC2)n2ncnc2n1,-0.374
23,C=CCN(CC=C)C(=S)NC(=O)c1ccc([N+](=O)[O-])cc1,active: 4.84
24,COC(=O)Cc1cc(=O)n2[nH]c(SC)nc2n1,0.0918

row,SMILES,z-score
1,COc1ccc(S(=O)(=O)N(C)c2ccc(C(=O)NCCC(C)C)cc2)cc1,-0.245
2,Cc1snc(SCC(=O)N/N=C(\N)COc2cccc(C(F)(F)F)c2)c1C#N,-0.185
3,O=C1CC(C2CCCO2)C(=O)N1Cc1ccccc1 (stereo not given),0.636
4,O=[N+]([O-])c1ccc(N/N=C/c2ccc[nH]2)cc1,-0.29
5,CC(C)n1c(-c2ccc(N(C)C)cc2)nc2ccccc21,0.782
6,O=C(COC(=O)c1c2ccccc2cc2ccccc12)Nc1ncc(C(F)(F)F)cc1Cl,-0.128
7,CCc1nccn1C(=O)c1cnn2c(C(F)F)cc(-c3ccccc3)nc12,-0.604
8,CC(=O)c1cccc(N(C(=O)c2ccccn2)C(C(=O)NC2CCCCC2)c2cccs2)c1 (stereo not given),1.44
9,O=C(/C=C/c1cccc(Cl)c1)Nc1ccncc1,-0.69
10,O=C(NCc1ccco1)c1ccc(=O)[nH]n1,-0.537
11,COC(=O)c1ccccc1NC(=O)C(C)Oc1ccccc1 (stereo not given),-0.764
12,CC1CCN(c2ccc(NC(=S)NC(=O)c3ccc(-c4cccc([N+](=O)[O-])c4)o3)cc2)CC1,-0.0494
13,O=C(Cc1ccc(Cl)cc1)NNS(=O)(=O)c1ccc([N+](=O)[O-])cc1,-0.0889
14,COc1ccc(NC(=S)N(CCN(C)C)C(C)c2ccco2)cc1Cl (stereo not given),-0.249
15,CCNC(=S)NS(=O)(=O)c1ccc(CC)cc1,-0.175
16,O=C(COc1ccc(C(=O)Nc2ccc(Cl)cc2)cc1)NCc1ccccc1,-0.0569
17,COc1ccc(CCC(=O)Nc2cc(Cl)ccc2N2CCN(C)CC2)cc1,0.512
18,C=CCc1cccc(CNc2nc3ccccc3n2CCC)c1O,-0.0628
19,COc1ccccc1/C=N/NC(=O)CN(C1=NS(=O)(=O)c2ccccc21)c1ccccc1,0.0784
20,Cc1c(Cl)c([N+](=O)[O-])nn1CCCC(=O)N1CCN(c2ccccc2)CC1,0.463
21,COc1ccc(N2C(=O)c3ccccc3NC2c2ccc(OC)c(COc3ccccn3)c2)cc1 (stereo not given),-0.453
22,COc1ccc(CN(CCCN2CCOCC2)S(=O)(=O)N(C)C)cc1OC,-0.34
